Data reported in publication PMC5469495, “MicroRNA319-regulated TCPs interact with FBHs and PFT1 to activate CO transcription and control flowering time in Arabidopsis” (PLoS Genetics, 2017).
No constants are given. Whether binding was seen depends on the method and setting. For some assays here: In cells and extracts the contact can be indirect. Some binding calls cover weakened binding; strength is not graded here.

T1: PHYTOCHROME AND FLOWERING TIME 1 (Arabidopsis thaliana) (UniProt Q7XYY2)
T1 sequence: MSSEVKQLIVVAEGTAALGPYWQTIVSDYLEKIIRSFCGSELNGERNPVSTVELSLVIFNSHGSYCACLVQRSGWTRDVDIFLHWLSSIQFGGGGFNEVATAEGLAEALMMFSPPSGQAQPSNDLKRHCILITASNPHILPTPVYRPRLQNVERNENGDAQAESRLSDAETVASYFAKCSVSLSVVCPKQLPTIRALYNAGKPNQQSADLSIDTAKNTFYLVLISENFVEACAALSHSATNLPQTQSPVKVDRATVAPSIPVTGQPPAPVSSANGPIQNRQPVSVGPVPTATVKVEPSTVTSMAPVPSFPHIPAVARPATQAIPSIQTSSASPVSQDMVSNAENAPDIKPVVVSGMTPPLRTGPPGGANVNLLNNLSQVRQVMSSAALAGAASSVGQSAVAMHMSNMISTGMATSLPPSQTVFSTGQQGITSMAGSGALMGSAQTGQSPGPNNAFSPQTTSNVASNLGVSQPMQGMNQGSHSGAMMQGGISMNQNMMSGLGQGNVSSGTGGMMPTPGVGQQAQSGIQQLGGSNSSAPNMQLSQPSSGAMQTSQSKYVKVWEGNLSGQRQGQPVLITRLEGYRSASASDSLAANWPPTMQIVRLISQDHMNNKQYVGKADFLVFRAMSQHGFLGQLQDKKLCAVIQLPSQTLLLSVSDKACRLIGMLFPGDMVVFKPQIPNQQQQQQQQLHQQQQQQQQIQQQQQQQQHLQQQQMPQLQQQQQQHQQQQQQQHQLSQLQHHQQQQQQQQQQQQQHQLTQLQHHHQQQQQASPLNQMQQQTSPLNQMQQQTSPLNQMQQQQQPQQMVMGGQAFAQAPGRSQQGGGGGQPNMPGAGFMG

T2: CDF2 (Arabidopsis thaliana) (UniProt Q93ZL5)
T2 sequence: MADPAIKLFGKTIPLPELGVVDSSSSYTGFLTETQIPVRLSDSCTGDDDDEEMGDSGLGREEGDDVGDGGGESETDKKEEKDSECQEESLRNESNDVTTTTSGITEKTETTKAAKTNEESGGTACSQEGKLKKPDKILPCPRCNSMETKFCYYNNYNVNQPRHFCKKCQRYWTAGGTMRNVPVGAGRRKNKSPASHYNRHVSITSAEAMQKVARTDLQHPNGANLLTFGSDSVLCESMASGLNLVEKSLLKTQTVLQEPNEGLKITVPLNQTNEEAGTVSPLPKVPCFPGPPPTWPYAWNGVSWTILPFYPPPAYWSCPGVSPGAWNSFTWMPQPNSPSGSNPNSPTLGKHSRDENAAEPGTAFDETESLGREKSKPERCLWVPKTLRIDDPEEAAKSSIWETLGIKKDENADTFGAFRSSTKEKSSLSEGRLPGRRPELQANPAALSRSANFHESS

T3: CDF1 (Arabidopsis thaliana) (UniProt Q8W1E3)
T3 sequence: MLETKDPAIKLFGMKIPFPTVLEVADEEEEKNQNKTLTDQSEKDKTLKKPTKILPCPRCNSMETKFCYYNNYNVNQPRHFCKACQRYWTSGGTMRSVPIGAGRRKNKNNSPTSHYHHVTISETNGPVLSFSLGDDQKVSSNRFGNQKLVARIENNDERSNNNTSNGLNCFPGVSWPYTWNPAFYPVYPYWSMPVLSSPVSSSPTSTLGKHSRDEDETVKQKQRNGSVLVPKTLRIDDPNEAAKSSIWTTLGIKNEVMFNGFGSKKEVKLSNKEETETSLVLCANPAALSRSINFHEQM

T4: CDF3 (Arabidopsis thaliana) (UniProt Q8LFV3)
T4 sequence: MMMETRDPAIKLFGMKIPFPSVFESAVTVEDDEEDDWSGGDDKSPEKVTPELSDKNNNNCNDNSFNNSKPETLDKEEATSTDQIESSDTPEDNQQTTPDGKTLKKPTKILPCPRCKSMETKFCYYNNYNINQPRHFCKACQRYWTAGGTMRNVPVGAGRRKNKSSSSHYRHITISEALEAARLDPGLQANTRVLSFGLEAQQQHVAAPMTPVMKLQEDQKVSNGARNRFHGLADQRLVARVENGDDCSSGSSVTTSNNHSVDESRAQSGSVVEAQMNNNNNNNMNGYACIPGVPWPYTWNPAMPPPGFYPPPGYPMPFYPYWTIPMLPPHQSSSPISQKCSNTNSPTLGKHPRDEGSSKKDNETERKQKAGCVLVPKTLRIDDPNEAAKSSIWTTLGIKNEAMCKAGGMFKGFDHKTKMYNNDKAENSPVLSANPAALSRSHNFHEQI

B1: TCP2 (protein, UniProt Q93V43 1-365)
chain: MIGDLMKNNNNGDVVDNEVNNRLSRWHHNSSRIIRVSRASGGKDRHSKVLTSKGPRDRRVRLSVSTALQFYDLQDRLGYDQPSKAVEWLIKAAEDSISELPSLNNTHFPTDDENHQNQTLTTVAANSLSKSACSSNSDTSKNSSGLSLSRSELRDKARERARERTAKETKERDHNHTSFTDLLNSGSDPVNSNRQWMASAPSSSPMEYFSSGLILGSGQQTHFPISTNSHPFSSISDHHHHHPHHQHQEFSFVPDHLISPAESNGGAFNLDFNMSTPSGAGAAVSAASGGGFSGFNRGTLQSNSTNQHQSFLANLQRFPTSESGGGPQFLFGALPAENHHHNHQFQLYYENGCRNSSEHKGKGKN
B2: TCP3 (protein, UniProt Q9MAH8 1-391)
chain: MAPDNDHFLDSPSPPLLEMRHHQSATENGGGCGEIVEVQGGHIVRSTGRKDRHSKVCTAKGPRDRRVRLSAPTAIQFYDVQDRLGFDRPSKAVDWLITKAKSAIDDLAQLPPWNPADTLRQHAAAAANAKPRKTKTLISPPPPQPEETEHHRIGEEEDNESSFLPASMDSDSIADTIKSFFPVASTQQSYHHQPPSRGNTQNQDLLRLSLQSFQNGPPFPNQTEPALFSGQSNNQLAFDSSTASWEQSHQSPEFGKIQRLVSWNNVGAAESAGSTGGFVFASPSSLHPVYSQSQLLSQRGPLQSINTPMIRAWFDPHHHHHHHQQSMTTDDLHHHHPYHIPPGIHQSAIPGIAFASSGEFSGFRIPARFQGEQEEHGGDNKPSSASSDSRH
B3: TCP10 (protein, UniProt O82277 1-361)
chain: MGLKGYSVGEGGGEIVEVQGGHIIRATGRKDRHSKVFTSKGPRDRRVRLSAHTAIQFYDVQDRLGYDRPSKAVDWLIKKAKTAIDKLELGETTTTTTRQEPVNTKPESPTLVFQRENNDQTQFVAANLDPEDAMKTFFPATTTTNGGGGTNINFQNYPHQDDNNMVSRTTTPPPNLSQDLGLSLHPFQGNNNTVVVPETNNFTTTHFDTFGRISGWNHHDLTMTSSSSSEHQQQEQEERSNGGFMVNHHPHHHHHQPSMMTLLNSQQQQVFLGGQQQQQQRGTLQSSLFPHSFRSWDHHQTTSDHHHHQNQASSMFASSSQYGSHGMMMMQGLSFPNTTRLLHGEEATQPNSSSSPPNSHL
B4: TCP24 (protein, UniProt Q9C758 1-324)
chain: MEVDEDIELQKHQEQQSRKLQRFSEDNTGLMRNWNNPSSRIIRVSRASGGKDRHSKVLTSKGLRDRRIRLSVATAIQFYDLQDRLGFDQPSKAVEWLINAASDSITDLPLLNTNFDHLDQNQNQTKSACSSGTSESSLLSLSRTEIRGKARERARERTAKDRDKDLQNAHSSFTQLLTGGFDQQPSNRNWTGGSDCFNPVQLQIPNSSSQEPMNHPFSFVPDYNFGISSSSSAINGGYSSRGTLQSNSQSLFLNNNNNITQRSSISSSSSSSSPMDSQSISFFMATPPPLDHHNHQLPETFDGRLYLYYGEGNRSSDDKAKERR
B5: TCP4-CFP (natural protein, Arabidopsis thaliana, UniProt Q8LPR5 1-420, looked up)
chain: MSDDQFHHPPPPSSMRHRSTSDAADGGCGEIVEVQGGHIVRSTGRKDRHSKVCTAKGPRDRRVRLSAHTAIQFYDVQDRLGFDRPSKAVDWLIKKAKTSIDELAELPPWNPADAIRLAAANAKPRRTTAKTQISPSPPPPQQQQQQQQLQFGVGFNGGGAEHPSNNESSFLPPSMDSDSIADTIKSFFPVIGSSTEAPSNHNLMHNYHHQHPPDLLSRTNSQNQDLRLSLQSFPDGPPSLLHHQHHHHTSASASEPTLFYGQSNPLGFDTSSWEQQSSEFGRIQRLVAWNSGGGGGATDTGNGGGFLFAPPTPSTTSFQPVLGQSQQLYSQRGPLQSSYSPMIRAWFDPHHHHQSISTDDLNHHHHLPPPVHQSAIPGIGFASGEFSSGFRIPARFQGQEEEQHDGLTHKPSSASSISRH
notes: TCP4, Arabidopsis thaliana, At3g15030; FRET donor; source: Arabidopsis protoplast cells, co-expressed

Key:
[1] = biological target: T1, PHYTOCHROME AND FLOWERING TIME 1 (Arabidopsis thaliana); assay: split reporter; LUC complementation imaging (LCI): nLUC and cLUC fusions co-infiltrated by Agrobacterium into N. benthamiana leaves; LUC activity 48 h after infiltration
[2] = biological target: T2, CDF2 (Arabidopsis thaliana); assay: two-hybrid; GAL4-AD and GAL4-BD derivatives co-transformed into yeast strain AH109; grown on SD-L/W, screened on SD-L/W/H or SD-L/W/H/A with 3-AT
[3] = biological target: T1, PHYTOCHROME AND FLOWERING TIME 1 (Arabidopsis thaliana); assay: as above
[4] = biological target: T3, CDF1 (Arabidopsis thaliana); assay: as above
[5] = biological target: T4, CDF3 (Arabidopsis thaliana); assay: as above
[6] = biological target: T1, PHYTOCHROME AND FLOWERING TIME 1 (Arabidopsis thaliana); assay: co-IP; GFP- and Myc-fused proteins transiently co-expressed in N. benthamiana leaves, collected 48 h after infiltration; anti-GFP- or anti-Myc-conjugated agarose beads; lysis buffer 50 mM Tris-HCl pH 7.5, 150 mM NaCl, 5 mM EDTA, 0.1% Triton X-100, 0.2% NP-40
[7] = biological target: T2, CDF2 (Arabidopsis thaliana); assay: split reporter; LUC complementation imaging (LCI): nLUC and cLUC fusions co-infiltrated by Agrobacterium into N. benthamiana leaves; LUC activity 48 h after infiltration
[8] = biological target: T3, CDF1 (Arabidopsis thaliana); assay: as above
[9] = biological target: T4, CDF3 (Arabidopsis thaliana); assay: as above

binding [1]	binding [2]	binding [3]	binding [4]	binding [5]	binding [6]	binding [7]	binding [8]	binding [9]	Binder
binds	no binding	binds	no binding	no binding	–	–	–	–	B1
binds	no binding	binds	no binding	no binding	–	–	–	–	B2
binds	no binding	binds	no binding	no binding	–	–	–	–	B3
binds	no binding	binds	no binding	no binding	–	–	–	–	B4
binds	no binding	binds	no binding	no binding	binds	no binding	no binding	no binding	B5
